Measured values as given in the supplement of paper PMC12355420.
Structures can show the parent of a compound that is named as a salt. This is one part of the list. Cut-off read from the data, not from the text of the source: active = 0.5 or less and inactive = the rest. Repeats are few or missing, and single values can be far off.

Legend:
Settings in all cases: 50 µM; 24 h
[1] = system: HeLa VPS33A reporter cells; assay: relative cell viability (CellMask signal) vs DMSO (fraction of DMSO); higher = less cytotoxic;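 note: primary screen of an FDA-approved drug library in HeLa reporter cells in 96-well format, CellMask signal normalized to DMSO-treated wells set as 1, under 0.5 deemed highly cytotoxic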
[2] = system: HeLa VPS33A R498W KI + HA-SDC1-FLAG; assay: relative GAG core protein HA-SDC1 amount per cell number vs DMSO (fraction of DMSO); higher = more SDC1 (GAG core protein);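 note: HA-SDC1 level read out by In-Cell Western staining with an anti-HA antibody against the N-terminal tag, screening FDA-approved library drugs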
[3] = system: HeLa VPS33A KO + NLuc-VPS33A R498W; assay: relative mutant VPS33A R498W amount (NanoLuc luminescence) vs DMSO (fraction of DMSO); HeLa model of a glycosaminoglycan (GAG) storage disease; KI is knock-in and KO knock-out; SDC1 is syndecan 1; higher = higher mutant VPS33A level;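 note: screen of an FDA-approved drug library, NanoLuc luminescence read after lysing the treated cells, taken as a measure of mutant VPS33A protein stability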

Structure (SMILES)	relative cell viability [1]	relative GAG core protein HA-SDC1 amount per cell number [2]	relative mutant VPS33A R498W amount [3]
[O-][n+]1cccc(CO)c1 [Mepiroxol]	1.14	inactive: 1.11	0.844
CC(C)NCC(O)c1ccc(O)c(O)c1 (configuration not stated) [Isoprenaline HCl]	1.2	inactive: 0.81	1.19
CNC(=O)c1c(C)oc2cc(Oc3ncnc4cc(OC)c(OC)cc34)ccc12 [Fruquintinib(HMPL-013)]	1.08	inactive: 0.975	1.29
Cc1ccc(C(C)C)c(O)c1 [Thymol]	0.98	inactive: 0.94	1.36
Nc1nc(Cl)nc2c1ncn2[C@@H]1O[C@H](CO)[C@@H](O)[C@@H]1F [Clofarabine]	1.19	inactive: 1.17	1.05
N[C@@H](CO)C(=O)O	0.904	inactive: 1.37	1.12
N[C@H]1CONC1=O [L-Cycloserine]	1.03	inactive: 1.01	1.18
C[N+](C)(C)CCOC(=O)CCC(=O)OCC[N+](C)(C)C [Succinylcholine Chloride Dihydrate]	0.946	inactive: 1.49	1.25
CC(C)CN(C[C@@H](O)[C@H](Cc1ccccc1)NC(=O)O[C@H]1CCOC1)S(=O)(=O)c1ccc(N)cc1 [Amprenavir (agenerase)]	1.12	inactive: 1.01	0.898
